Experimental data: PubChem BioAssay AID1508624 (National Center for Advancing Translational Sciences (NCATS), 2021)
The campaign covered roughly 48,000 compounds. About 120 (0.25%) were called active. About 4% were inconclusive and are not listed. The call rests on the fitted dose curve; in most records, active means well fitted activation curve with a large enough effect; inconclusive means small, poorly fitted or top-dose-only effect, or another doubt; inactive means no such curve, though single readings can be large or run the other way. The list shows a part of the results.

Experiment: Primary qHTS for Identification of Small Molecule Activators of Huntingtin-Antisense Promoter Activity; further: nearly all actives have a fitted effect of over 55% in size
Conditions: HEK293 HTT-AS promoter firefly luciferase reporter, 24 h; series mostly up to 57.5 µM; activity change, positive = activation: at the top concentration
Summary of the method: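 Luminescence was read after Dual-Glo reagent and a 10 min room-temperature incubation. Values were normalized to vehicle (0% activity) and zero RLU (-100% activity). Reporter HEK293 cells had been exposed to compounds (up to 57.5 uM final) for 24 h.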

Activity change, positive = activation, inactive:
O=C(NCc1ccc(F)cc1)c1nnc(Cc2cccc(F)c2)o1 -18.5%, COc1ccc(-c2noc(-c3cc(-c4ccc(F)cc4)n[nH]3)n2)cc1 -13.5%, CC(C)c1ccc(NC(=O)c2cnc3sc(N4CCCC4)nn3c2=O)cc1 -24.5%, CCOc1ccc(-c2nonc2NC(=O)c2ccco2)cc1OCC 0.113%, CCOC(=O)c1ccc(NC(=O)CC2C(=O)N(c3cccc(C)c3)C(=O)N2CCOC)cc1 (stereo unspecified) 0%, COc1ccc(OC)c(-c2csc(-c3c(N)c(C(=O)c4ccc(Cl)cc4)n4ccccc34)n2)c1 -4.64%, CCOc1cc(CNC(=O)NC2COc3ccccc3C2)cc(OCC)c1OCC (stereo unspecified) -10.7%, Cc1ccc(OCC(=O)Nc2nnc(SCc3cc(=O)n4cccc(C)c4n3)s2)cc1 -1.05%, CC1=C(C(=O)N2CCN(c3ccc(Cl)cc3)CC2)C2(CCC(C)CC2)OC1=O (stereo unspecified) -21.3%, O=C(Cn1c(=O)n(Cc2ccccc2)c(=O)c2sc3ccccc3c21)Nc1ccc(F)cc1 -19.5%, CCCC(=O)Nc1ccc(OCC(O)CNC(C)C)c(C(C)=O)c1 (stereo unspecified) -8.75%, COc1ccc(-c2nc3sc(CCNC(=O)C(=O)Nc4ccc(C)c(C)c4)c(C)n3n2)cc1 -12.2%, CCOC(=O)c1cc(-c2ccccc2)n(CC(=O)NCc2ccccc2)c1C -25.8%, Cc1ccc(C)c(Cn2c(=O)n(CCCC(=O)NCCc3ccc(Cl)cc3)c(=O)c3ccccc32)c1 -17.2%, O=C(COc1ccc(Cl)cc1)NCC(c1cccs1)S(=O)(=O)c1ccc(F)cc1 (stereo unspecified) -29.4%, CCC(C)NC(=O)Cn1c(=O)n(-c2ccc(OC)c(OC)c2)c(=O)c2ccccc21 (stereo unspecified) -11.7%, Cc1ccc2c(c1)Cc1c(nc(-c3ccc(F)cc3)nc1SCC(=O)N1CCCCC1)O2 9.04%, Cc1ccc(Nc2c(-c3cccnc3)nc3ccc(Cl)cn23)cc1 6.29%, CC[C@H](Nc1ncnc2nc[nH]c12)c1nc2cccc(F)c2c(=O)n1-c1ccccc1 -11.9%, CCOC(=O)C1CCN(C(=O)c2c(C)nn(-c3ccc(F)cc3)c2-n2cccc2)CC1 -19.3%, COc1ccc2cc(CCNS(=O)(=O)c3ccc(C)cc3)c(=O)[nH]c2c1 -10.1%, COc1ccc(C(=O)Nc2nnc(S(=O)(=O)N(C)c3ccc(C)cc3)s2)cc1 -6.7%, COc1ccc(C(=O)Nc2nnc(S(=O)(=O)N3CCN(c4ccc(F)cc4)CC3)s2)cc1 -4.61%, CCc1ccccc1Nc1ncnc2c1cnn2-c1ccc(C)cc1C -2.26%, CC(C)COc1ccc(C(=O)Nc2nnc(S(=O)(=O)N(C)Cc3ccco3)s2)cc1 -6.08%, COc1cccc(CNC(=O)c2cc3c(=O)n(Cc4cccnc4)ccc3nc2C)c1 -15.9%, CCc1cccc(NC(c2ccccc2)c2nnc(-c3ccccc3F)o2)c1 (stereo unspecified) 9.61%, CCOC(=O)c1c(C)[nH]c(C)c1S(=O)(=O)N1CCCC(C(=O)NCc2ccccc2Cl)C1 (stereo unspecified) -16.6%, CC(=O)Nc1ccc(OCC(O)CNC(C)C)cc1 (stereo unspecified) -0.738%, COc1ccccc1CNC(=O)CN(c1ccccc1OC)S(C)(=O)=O -19.9%, CCc1ccc(C2C(C(=O)Nc3ccccc3OC)=C(C)Nc3nc(SCc4ccccc4)nn32)cc1 (stereo unspecified) -5.01%, CCOc1ccc(CNC(=O)CN2N=C(c3ccccc3)CCC2=O)cc1OC -6.45%, Cc1ccc(-n2ncc(C(=O)NCCN3CCN(C)CC3)c2C2CCN(C(=O)OC(C)(C)C)CC2)cc1 -12.9%, Cc1nc(C)c(-c2ccc(SCC(=O)Nc3cccc(C)c3C)nn2)s1 -13.6%, Cc1ccc(CNC(=O)CSc2nc3ccsc3c(=O)n2-c2ccc(Br)cc2)cc1 -14.3%, Cc1ccccc1C(=O)NNc1ncnc2c1cnn2-c1cccc(Cl)c1 -13.2%, Cc1ccc(Cn2c(CNC(=O)c3ccc(Cl)c([N+](=O)[O-])c3)nc3cccnc32)cc1 -27.4%, CCCc1ccc(NC(=O)C2CCCN(c3cnccn3)C2)cc1 (stereo unspecified) 14.6%, CCc1ccc(NC(=O)C2CCN(S(=O)(=O)c3cccc(-c4noc(C)n4)c3)CC2)cc1 -28.6%, CCOc1ccc(Nc2nc(C)c(NC(=O)c3cccc(F)c3)c(Nc3ccc(OCC)cc3)n2)cc1 -28.4%, CCC1Oc2ccc(C)cc2N(CC(=O)N2CCN(c3ccccc3OC)CC2)C1=O (stereo unspecified) 1.89%, Cc1noc(C)c1S(=O)(=O)N(CC(=O)NCCc1ccc(Cl)cc1)c1ccc(C(C)C)cc1 -3.3%, Cc1cccc(OCC(=O)Nc2ccc3c(c2)nc(CN2CCCCC2)n3C)c1 -37.6%, CCCc1nnc(NC(=O)Cc2coc3c(C)c(C)ccc23)s1 11.9%, Cc1ccc(Cl)cc1N1CCN(S(=O)(=O)c2ccc3c(c2)C(C(C)C)C(=O)N3)CC1 (stereo unspecified) -26.7%, O=C(COCc1cc(-c2cccs2)on1)NCc1ccc(F)cc1 5.51%, O=C(Nc1ccc(Cl)cc1)c1ccc(-n2cnnc2)cc1 -5.08%, CCc1cc(=O)[nH]c(SCc2nc(-c3cccc(Cl)c3)no2)n1 -21.5%, Cc1ccc(-n2ncc3c(N4CCN(Cc5ccccc5)CC4)ncnc32)cc1Cl 0%, CC(C)c1ccc(NC(=O)C2CCCN2S(=O)(=O)c2ccc3nc(-c4ccccc4)[nH]c3c2)cc1 (stereo unspecified) -22.5%, CCOCCCn1c(SCC(=O)Nc2ccc(CC)cc2)nc2ccccc2c1=O -21.7%, COc1ccc(C(=O)N(Cc2sccc2C)C2CCS(=O)(=O)C2)cc1 (stereo unspecified) -8.75%, COc1cc(NC(=O)Cn2ccc3ccccc3c2=O)cc(OC)c1OC -16.1%, COC(=O)c1ccc([C@H]2Nc3ccc(S(=O)(=O)Nc4cccc(C)c4)cc3[C@H]3C=CC[C@H]32)cc1 -15.8%, COCCNC(=O)CCCn1c(SCc2ccccc2Cl)nc2c(sc3ccccc32)c1=O 6.61%, CCCCOc1ccc(C(=O)N(Cc2ccco2)Cc2ccco2)cc1 -16.6%, COc1ccccc1C1CC(=O)N(c2cccc(C(F)(F)F)c2)C2=C1C(=O)OC2 (stereo unspecified) 0%, COC(=O)c1c(-c2ccccc2)c(-c2ccccc2)nn(C)c1=O -22.2%, Cc1ccc(/C=N/n2c(-c3ccccc3)csc2=S)cc1 -11.9%, CCC(=O)Nc1nnc2n1CCS2 -9.34%, Cc1cccc(N(CC(N)=O)C2SC(=O)N(Cc3cccc(C(=O)O)c3)C2=O)c1 (stereo unspecified) -10.2% [at 11.5 µM, percent change from vehicle, -100% = no light]
